Laboratory results published in PubChem BioAssay (NCI).
Several values for one entry are separate records, joined by “and”; a condition that tells them apart may be missing. Equal values may be shown once.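 Five compound concentrations were applied to cells in 96-well plates for 48 hours; endpoints were derived by simple linear interpolation of the resulting dose-response curve. At the GI50, growth is halved. TGI marks complete inhibition of growth.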

Each compound was assayed on NCI-H322M lung (assay: DTP human tumour cell line panel, 48 h).

Compound	GI50	TGI [µM]
COC(=O)C12OCC34C(CC5C(C)=CC(=O)C(O)C5(C)C3C(O)C1O)OC(=O)C(OC(=O)CC(C)C)C24 (stereo unspecified)	0.15 µM and 0.0702 µM	
COc1cc2c(/C=C3/C(=O)Nc4c3ccc3ccccc43)c(Cl)[nH]c2cc1C	5.98 µM	> 50
CCCC[Si](CCCC)(CCCC)O[C@@H](/C=C/C(=O)OCC)[C@H](Cc1ccccc1)O[Si](CCCC)(CCCC)CCCC		> 100
Clc1ccc(-c2cc(-c3nc4ccccc4[nH]3)no2)cc1		43.7
CCOC(=O)c1nc2ccc(C(F)(F)F)cc2nc1Nc1ccc(OC)c(OC)c1		> 100
COc1ccc2oc(-c3ccc(Cl)cc3)c(N3CCN(C)CC3)c2c1	2.71 µM	9.15
CSc1ccc2c(c1)C(=O)c1c-2n(CCCN=[N+]=[N-])c(=O)c2cc([N+](=O)[O-])ccc12	> 26.9 µM	> 100
O=C(NC1CCN(Cc2ccccc2)CC1)c1ccccc1I		> 100
O=C1CSc2ccncc2N1		> 100
CNC(=S)N/N=C(/C)CCC/C(C)=N/NC(=S)NC		> 100
Cc1cccc2c(=O)c3c(sc12)c(NCCN)nc1ccccc13	0.956 µM	2.27
Cn1c(-c2ccccc2)c/c(=N\NS(C)(=O)=O)c2cc(S(=O)(=O)O)ccc21		> 100
O=C1/C(=c2\c3ccccc3n3c(=O)c4ccccc4nc23)Nc2ccccc21		> 100
COC(=O)c1c/c(=N\NC(=O)CC(=O)Nc2ccc(C)cc2)c2ccccc2o1		> 100
FC(F)(F)c1ccccc1C=NC12CC3CC(CC(C3)C1)C2		> 100
CCOCC[P+](c1ccccc1)(c1ccccc1)c1ccccc1	28.6 µM	> 100
CCOC(=O)c1cc(Cl)ccc1OC(N)=O		> 100
COc1cc(OC)nc(NC(=O)NS(=O)(=O)c2cccc3ncn(C)c(=O)c23)n1		> 100
N=C(N)c1ccc(-c2ccc(-c3cc(Cl)cc(Cl)c3)s2)nc1	1.62 µM	2.99
O=C(CN1C(=O)c2ccccc2C1=O)OCC1CCCN2CCCCC12 (stereo unspecified)		> 100
C[C@H]1[C@H](C)CC[C@]2(C(=O)O)CC[C@]3(C)C(=CC[C@@H]4[C@@]5(C)CC[C@H](OC(=O)/C=C\c6ccc(O)cc6)C(C)(C)[C@@H]5CC[C@]43C)[C@H]12	1.15 µM	5.97
COc1cc([C@@H]2c3cc4c(cc3[C@H](O)[C@H]3COC(=O)[C@@H]23)OCO4)cc(OC)c1OC	0.652 µM and 0.507 µM	> 100
N#C/C(N)=C(\C#N)N=CNc1ccccc1N		> 100
[O-][N+]1=C(c2ccccc2)COc2ccccc21		> 100

Compound	GI50	TGI [µM]
CCC(C)(C)c1ccc(Oc2cccc(C(=O)O)c2)cc1		> 100
CCOC(=O)c1cc(C2(OC)CCN(Cc3ccccc3)C2=O)c(-c2cc(C)no2)[nH]1 (stereo unspecified)		> 100
CCC(CCCCC1CC[C@H]2CC(=O)C[C@@H]12)OC (stereo partly specified)		> 100
O=C1CC23CC(=O)CC2(C1)c1ccccc1C3=O (stereo unspecified)		> 100
COc1ccc(C2Oc3c(cccc3OC)C=C2[N+](=O)[O-])cc1 (stereo unspecified)		8.25
Cc1ccc(S(=O)(=O)NC(=O)Nc2nc(Cl)cc(Cl)n2)cc1		> 100
O=C(Nc1ccc(F)cc1)c1cc2ccc(O)cc2oc1=Nc1cccc(F)c1		68.6
Clc1cccc(Cc2cn3cc(-c4ccccc4)nc3s2)c1	13.3 µM	> 100
COc1ccc2c(c1)CC[C@@H]1[C@@H]2CC[C@]2(C)c3c(cc(C(=O)c4ccccc4)c4sccc34)C[C@@H]12	> 100 µM	> 100
COC(=O)/C(Cl)=C1/CC1COCc1ccccc1 (stereo unspecified)		> 100
COC(=O)c1cc(/C=C2\Cc3cc4c(cc3C2=O)CCC4)cc2c1CCC2		> 100
CCC1CCN=C(Cn2cc(C)c(=O)[nH]c2=O)N1 (stereo unspecified)		> 100
COc1ccc(-c2oncc2-c2cc(OC)c3c(c2)OCO3)cc1	4.93 µM	> 100
N=C1N=Nc2nc(C3(c4nc5n(c4O)C(=N)N=N5)Cc4ccccc4C3=O)c(O)n21 (stereo unspecified)		> 100
CCC(/C=C/c1ccccc1)=N\N=C(\C=C\c1ccccc1)CC		> 100
NNc1nc(-c2ccccn2)nc2sc3c(c12)CCCCCC3	5.36 µM	87.3
CC(C)(C)C1CCN(C(=O)c2ccccc2)CC1		> 100
Cc1cc2nc3c(C#N)c(-c4ccccc4)cc(Nc4cccc(C(F)(F)F)c4)n3c2cc1C		30.2
Cc1ccc(S(=O)(=O)C2=C3C(=C(c4ccccc4)c4ccccc43)CN(S(=O)(=O)c3ccc(C)cc3)C2)cc1	> 100 µM	> 100
CCOC(=O)C1=C(N)Oc2cc(OC)ccc2C1c1ccc(F)c(F)c1 (stereo unspecified)	6.27 µM	19.5
Cc1c(C)c(C)c(CSC(=N)N)c(C)c1C		28.8
CCOC(=O)C(SCCO)C(C(=O)OCC)n1cc(C)c(=O)[nH]c1=O (stereo unspecified)		> 100
O=C(O)C#Cc1ccc([N+](=O)[O-])cc1		> 100
